Among all 360,000 compounds or so, about 2,600 (0.72%) were called active. Inconclusive means that the source gave no clear call. Such entries were picked first, then a sample of the others. Calls come from the whole dose curve; as a rule, active = well fitted inhibition curve with a large enough effect; inconclusive = small, poorly fitted or top-dose-only effect; inactive = no such curve, though single readings can be large or run the other way. A potency beside an inconclusive call is a rough fit, not a confirmed value.
assay: Primary qHTS for Inhibitors of ATXN expression; conditions: HEK-293 ATXN2-luciferase reporter, luminescence, 24 h; activity change, negative = inhibition: at 57 µM (top of the series); note: nearly all actives have a fitted effect of over 55% in size
How it was run: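 ATXN2-luciferase reporter cells (luciferase flanked by upstream and downstream ATXN2 gene portions) were treated 24 h at 37 °C with compounds at up to 57 uM. SteadyGlo luminescence gave expression; GF-AFC fluorescence gave viability.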
% is set by controls: 0 for no effect and ±100 for the full control effect; potency is the fitted concentration of half-maximal effect; tags give direction and shape of the fitted curve.

| SMILES | Potency | activity change, negative = inhibition |
| --- | --- | --- |
| O=[N+]([O-])c1cc(C(F)(F)F)ccc1NCCCCNS(=O)(=O)c1ccc(Cl)cc1 | inconclusive: 35.5 µM [inhibitor, single point] |  |
| Cc1ccc(CNC(=O)CNC(=S)N(Cc2ccccc2)Cc2ccccc2F)cc1 | inconclusive: 37.7 µM [inhibitor, single point] |  |
| CCCCOc1ccc(C(=O)NCCc2sc3nc(-c4ccc(OC)cc4)nn3c2C)cc1 | inactive |  |
| Fc1ccccc1N1CCN(c2ncnc3onc(-c4ccc(Cl)cc4)c23)CC1 | inactive |  |
| COC(=O)c1ccc(Cn2c(C)c(C(=O)NCc3ccc(Cl)c(Cl)c3)sc2=O)o1 | inconclusive: 31.6 µM [inhibitor, single point] |  |
| CCOC(=O)C(NC(=O)CC)(Nc1cc(C)on1)C(F)(F)F (stereo unspecified) | inactive |  |
| Cn1nnnc1Sc1ncnc2scc(-c3ccccc3)c12 | inconclusive: 39.8 µM [inhibitor, single point] |  |
| O=C(N/N=C/c1ccccn1)c1cc(-c2ccc(Cl)s2)[nH]n1 | inconclusive: 28.2 µM [inhibitor, single point] |  |
| NC(=O)N/N=C/c1c(O)ccc2oc3c(c12)CCCC3 | inconclusive: 28.2 µM [inhibitor, single point] |  |
| O=C(CN1C(=O)c2ccccc2S1(=O)=O)Nc1ncc(Cl)cc1Cl | active: 5.01 µM |  |
| Cc1ccc(C)c(N2CCN(S(=O)(=O)c3ccc(C(=O)N(C)C)s3)CC2)c1 | inconclusive: 8.91 µM [inhibitor, partial curve, poor fit] |  |
| CN(CC(O)COc1c(F)cc(Br)cc1F)C1CCCCC1 (stereo unspecified) | inconclusive: 1.5 µM [inhibitor, single point] |  |
| Cc1ccc(SCCC(=O)N/N=C/c2ccncc2)cc1 | inconclusive: 1.68 µM [inhibitor, partial curve, poor fit] |  |
| CCCC(=O)N1CCC1(C)C(=O)Nc1cccc(F)c1 (stereo unspecified) | inactive |  |
| CCOC(=O)N1CCN(C(=O)c2c[nH]c3ccc(S(=O)(=O)N(C)c4ccc(OCC)cc4)cc3c2=O)CC1 | inactive |  |
| Clc1ccc(CN(Cc2ccccc2)C(c2cccs2)c2nnnn2C2CCCC2)cc1 (stereo unspecified) | inactive |  |
| CN(C)c1ccc(SC#N)cc1 | inactive |  |
| Cc1ccc(OCCSc2nc3ccccc3n2CC(=O)O)cc1C |  | inconclusive: -43.4% [inhibitor] |
| COC(=O)[C@@H](NC(=O)NC1CCN(Cc2ccccc2)CC1)C(C)C | inactive |  |
| COc1cc(/C=N/NC(=O)CCn2c3ccccc3c3ccccc32)ccc1O | inactive |  |
| CCOC(=O)C(=Cc1ccccc1OC)C(=O)OCC | inconclusive: 28.2 µM [inhibitor, single point] |  |
| COc1ccc(CNC(=O)c2ccc(-c3cccnc3)c3ccoc23)cc1OC | inconclusive: 31.6 µM [inhibitor, partial curve] |  |
| CC[N+]1=C(C)C(C)(C)c2cc(C)ccc21 | inconclusive: 2.51 µM [inhibitor, full curve, poor fit] |  |

| SMILES | Potency | activity change, negative = inhibition |
| --- | --- | --- |
| Cc1noc(C)c1COc1ccccc1C(=O)Nc1ccc(C(N)=O)cc1 | inactive |  |
| O=C(COc1ccccc1-c1ccccc1)N/N=C/c1ccc2ccccc2c1 | inconclusive: 31.6 µM [inhibitor, single point] |  |
| Cc1ccccc1-c1nc(C(=O)NCC2CCCO2)cc2c1[nH]c1ccccc12 (stereo unspecified) | inconclusive: 31.6 µM [inhibitor, single point] |  |
| O=C(COC(=O)c1ccc2ccccc2n1)NCc1ccccc1 | inactive |  |
| Cc1nc(-c2c(C(F)(F)F)noc2-c2ccc(O)cc2O)cs1 | inconclusive: 25.1 µM [inhibitor, single point] |  |
| NC(=O)CC(NC(=O)c1ccc(Br)cc1)c1ccc(N2CCCCCCC2)c([N+](=O)[O-])c1 (stereo unspecified) | inconclusive: 35.5 µM [inhibitor, single point] |  |
| COc1ccccc1NS(=O)(=O)c1cc(NC(=O)C(C)C)ccc1N1CCCCC1 | inactive |  |
| COc1ccc(-n2c(Cc3cccn3C)nnc2SCC(=O)Nc2ccc(C(C)=O)cc2)cc1 | inactive |  |
| CN1CCN(c2ccc(NC(=O)COc3ccc4ccccc4c3)cc2)CC1 | inactive |  |
| CC(C)C1C(=O)N(Cc2cn(CC3CCCCC3)nn2)CCS(=O)(=O)N1Cc1ccc(-c2cccc(CO)c2)cc1 (stereo unspecified) | inactive |  |
| O=C1COc2ccc(C(=O)CCl)cc2N1 | inactive |  |
| CCOC(=O)C1=C(CN2CCc3ccccc32)NC(=O)NC1c1ccc(Cl)cc1 (stereo unspecified) | inconclusive: 14.1 µM [inhibitor, partial curve, poor fit] |  |
| COc1cc(/C=C(\C#N)c2nc3ccccc3[nH]2)cc(Br)c1OCc1ccccc1 | inconclusive: 8.44 µM [inhibitor, partial curve, poor fit] |  |
| CCCCCCCCNCCS(=O)(=O)NCc1ccccc1 | inconclusive: 35.5 µM [inhibitor, single point] |  |
| CC(OC(=O)c1cc(Br)ccc1O)C(=O)Nc1ccc(S(=O)(=O)N2CCCC2)cc1 (stereo unspecified) | inconclusive: 39.8 µM [inhibitor, single point] |  |
| CC(C)C[C@H](NC(=O)c1nc[nH]c1C(=O)N1CCN(C(=O)OC(C)(C)C)CC1)C(=O)OCc1ccccc1 | inconclusive: 39.8 µM [inhibitor, single point] |  |
| Cc1cnc(NC(=O)C2COc3ccccc3O2)s1 (stereo unspecified) | inconclusive: 20 µM [inhibitor, single point] |  |
| Cc1ccc(OCCCCNC2CCCCC2)c(C)c1 | inconclusive: 31.6 µM [inhibitor, single point] |  |
| O=C(NCCc1ccc(Cl)cc1)c1ccc(CSCc2cccc(Cl)c2)o1 | inconclusive: 31.6 µM [inhibitor, single point] |  |
| Cc1ccc(Nc2cc(C)nc(-c3ccccc3)n2)cc1 | inactive |  |
| COc1ccc(NC(=O)CNC(=O)c2nn(-c3ccc(OC)c(Cl)c3)c(=O)c3ccccc23)c(OC)c1 | inactive |  |
| COc1cccc(/C=N/Nc2ccc([N+](=O)[O-])cn2)c1O | active: 8.91 µM |  |
| COc1ccc(CN2CCNC(=O)C2CC(=O)NCC2CCOCC2)cc1C (stereo unspecified) | inconclusive: 7.94 µM [inhibitor, partial curve, poor fit] |  |

Source: PubChem BioAssay AID1745845 (National Center for Advancing Translational Sciences (NCATS), 2022)
